# PubChem BioAssay AID1347044 (National Center for Advancing Translational Sciences (NCATS), 2019)
# Values joined by “and” are separate entries in the source; they are usually repeats but may differ in a detail not shown here. Equal values may be shown once. The list shows a part of the results. These are further read-outs of the screen, such as a control signal, another cell line or another target. No call is given for them. Most of these compounds were active or inconclusive in the main read-out, so they are no random draw. Potencies come from curve fits of mixed quality, noted in brackets.
# Test: Natriuretic polypeptide receptor (hNpr1) antagonism - Confirmation; further: nearly all actives have a fitted effect of over 70% in size
# Conditions: HEK293 hNpr1 cGMP GloSensor luminescence, ANP-stimulated; measured here: HEK-hNpr1 cytotoxicity, CellTiter-Glo
# Method in brief: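 HEK293 cells expressing hNpr1 and the pGS-40F GloSensor cGMP sensor, loaded with 2% GloSensor reagent for 2 h, then treated 30 min with compound at room temperature. Luciferase luminescence read before and 20 min after 0.1 nM hNppA stimulation.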
# Tags describe the fitted curve by direction and shape.
row,SMILES,CC50
1,O=C(N[C@H]1CO[C@H]2[C@@H]1OC[C@@H]2n1nnnc1Oc1ccc2c(c1)OCO2)c1ccc(C(F)(F)F)cc1,"12.2 µM [falling, partial curve]"
2,CN(Cc1ccncc1)Cc1ccc(-c2ccccc2)cc1,"28 µM [falling, partial curve]"
3,O=C(c1ccc2[nH]ccc2c1)N1CCCN(c2cc(-c3ccc(Br)cc3)[nH]n2)CC1,"19.3 µM [falling, partial curve]"
4,Cc1nc2cccnc2n1CC1CCCN(S(=O)(=O)c2ccc(CC(C)C)cc2)C1 (stereo not drawn),"21.7 µM [falling, partial curve]"
5,COc1ccc(C(=O)Nc2ccc(-c3noc([C@@H]4CCCN4Cc4ccc(C(F)(F)F)cc4)n3)cn2)cc1,"10.9 µM [falling, partial curve]"
6,Cc1cc(C(=O)N2CCC(F)(c3nc(-c4ccncc4)no3)CC2)n(C)n1,"24.3 µM [falling, partial curve]"
7,Cc1ccc(CN2CCc3nc(C(=O)Nc4ccc(Cl)cc4)oc3CC2)cc1,"28 µM [falling, partial curve]"
8,COc1ccc(-c2noc(CC3CCN(C(=O)COc4cccc(C)c4)CC3)n2)cc1,"21.7 µM [falling, partial curve, poor fit]"
9,COC(=O)c1cccc(NC(=S)N[C@@H]2C=C[C@@H](c3c(C)nn(-c4ccccc4[N+](=O)[O-])c3C)C2)c1,"24.3 µM [falling, single point]"
10,O=C(CCC1CCN(c2cc(NC3CC3)ncn2)CC1)N1CCN(c2ccccc2F)CC1,"21.7 µM [falling, partial curve]"
11,CN(C)c1cccc(C(=O)N2CCNc3cnc(Nc4cccc(C(F)(F)F)c4)nc3C2)c1,"24.3 µM [falling, partial curve]"
12,COc1ccc(-n2nc(C3CCN(Cc4cccc5ccccc45)CC3)[nH]c2=O)cc1,"27.3 µM [falling, single point]"
13,Cc1ccc(C(=O)N2CCC(Cc3nc(-c4ccccc4)no3)CC2)c(C)c1,"9.68 µM [falling, partial curve]"
14,COc1ccc(CCC(=O)N2CCC[C@H]2c2nc(-c3ccccc3Cl)no2)cc1,"43.2 µM [falling, single point]"
15,COc1ccc(C2Cn3nnc(C(=O)N4CCN(C(=O)c5cc(C)ccc5C)CC4)c3CO2)cc1 (stereo not drawn),"19.3 µM [falling, partial curve]"
16,COc1cccc(C(=O)N2CCCN(c3cc(-c4ccc(Cl)cc4)[nH]n3)CC2)c1OC,"13.7 µM [falling, partial curve]"
17,COC(=O)c1cccc(NC(=S)N[C@@H]2C=C[C@@H](c3c(C)nn(-c4ccc(F)cc4)c3C)C2)c1,"24.3 µM [falling, partial curve]"
18,CCOc1ccc(CC(=O)N2CCC(Cc3nc(-c4ccc(OC)cc4)no3)CC2)cc1,"4.32 µM [falling, full curve]"
19,COc1ccccc1Nc1ncc2c(n1)CN(C(=O)c1ccccc1)CCN2,"35.3 µM [falling, partial curve]"

row,SMILES,CC50
1,CCNc1cc(N2CCC(CCC(=O)N3CCCN(c4ncccn4)CC3)CC2)ncn1,"19.3 µM [falling, partial curve]"
2,O=C(Cc1ccc2c(c1)OCO2)N1CCNc2cnc(Nc3cccc(F)c3)nc2C1,"31.4 µM [falling, partial curve]"
3,Cc1cc(N2CCCC(Cn3cc(Cc4ccccc4)nn3)C2)nc(N)n1 (stereo not drawn),"4.85 µM [falling, full curve]"
4,COc1ccc(C(=O)Nc2ccc(-c3noc([C@@H]4CCCN4CC4CCCCC4)n3)cn2)cc1,"6.85 µM [falling, partial curve]"
5,O=C(CCC1CCCC1)N1CCC(Cc2nc(C3CCOCC3)no2)CC1,"17.2 µM [falling, partial curve]"
6,COc1ccccc1CC(=O)N1CCN(C(=O)c2nnn3c2COC(c2ccc(Cl)cc2)C3)CC1 (stereo not drawn),"19.3 µM [falling, partial curve]"
7,NC(=O)Cc1c[nH]c2ncc(-c3ccc(Oc4ccccc4)cc3)cc12,"19.8 µM [falling, partial curve]"
8,O=C(NCC1CC1)c1nc2c(o1)CCN(Cc1ccc(F)cc1F)CC2,"22.2 µM [falling, partial curve]"
9,O=c1[nH]c(C2CCCN(Cc3ccc(-c4cccs4)cc3)C2)nc2ccc(F)cc12 (stereo not drawn),"27.3 µM [falling, partial curve] and 34.3 µM [falling, single point]"
10,N#Cc1cccnc1N1CCC(CO)(Cc2ccccc2C(F)(F)F)CC1,"30.6 µM [falling, single point]"
11,COc1ccc(CN2C[C@H]3CN(Cc4ccc5c(c4)OCCO5)CCN3C2=O)cc1,"28 µM [falling, partial curve]"
12,N#Cc1ccc(CN2CCc3nc(C(=O)NCc4cccc(F)c4)oc3CC2)cc1,"39.6 µM [falling, partial curve]"
13,O=C(c1ccccc1)N1CCC2(CC1)N=C(c1ccc(Br)cc1)NO2,"34.3 µM [falling, single point]"
14,CN(C)C(=O)c1ccc(CC2CCN(C(=O)CC3CCCCC3)CC2)cc1,"21.7 µM [falling, partial curve]"
15,CC(=O)N1CCN(c2nc3c(s2)CC(C(=O)Nc2cc(F)cc(F)c2)CC3)CC1 (stereo not drawn),"19.3 µM [falling, partial curve]"
16,COc1ccc(C(=O)N2CCN(c3cc(-c4ccc(F)cc4)[nH]n3)CC2)cc1,"21.7 µM [falling, partial curve]"
17,CC(=O)Nc1ccc(S(=O)(=O)N[C@H]2CO[C@H]3[C@@H]2OC[C@@H]3Nc2nccc(-c3ccco3)n2)cc1,"24.3 µM [falling, partial curve]"
18,O=C(Nc1ccc(Cl)cc1)c1nc2c(o1)CCN(Cc1ccc3c(c1)CCO3)CC2,"25 µM [falling, partial curve]"
19,COc1ccc(C(=O)N2CCCN(c3cc(-c4ccccc4)[nH]n3)CC2)c(C)c1,"17.2 µM [falling, partial curve]"
